At least one compound was matched to its structure with a doubt left. Some entries repeat one wording, which the source may state once for all of them. Numbered stars: 1 amine (or outer) side, 2 acyl side, 3 side chain; on linkers, the order of the positions; unused ones are H or OH. Bridge positions count the residues as written; N and C are the ends. Square brackets hold non-standard residues; d marks the D form. * marks the point of attachment. PEG24 = NCCOCCOCCOCCOCCOCCOCCOCCOCCOCCOCCOCCOCCOCCOCCOCCOCCOCCOCCOCCOCCOCCOCCOCCOCCC(=O)O; C20 diacid = O=C(O)CCCCCCCCCCCCCCCCCCC(=O)*; γGlu = O=C(O)[C@H](CCC(=O)[*:2])N[*:1]; CH2 = C([*:1])[*:2]; βAla = NCCC(=O)O
Test system: plasma cGMP
Experiment: In vivo monkey studies, plasma cGMP ELISA
Parameters: species or system male cynomolgus monkeys
Settings: for Net cGMP (nM) Change from Baseline 0.083 h: 0.083 h postdose; for Net cGMP (nM) Change from Baseline 0.083 h / Net cGMP (nM) Change from Baseline 0.25 h / Net cGMP (nM) Change from Baseline 0.5 h / Net cGMP (nM) Change from Baseline 1 h / Net cGMP (nM) Change from Baseline 2 h / Net cGMP (nM) Change from Baseline 4 h / Net cGMP (nM) Change from Baseline 8 h / Net cGMP (nM) Change from Baseline 12 h / Net cGMP (nM) Change from Baseline 24 h / Net cGMP (nM) Change from Baseline 36 h / Net cGMP (nM) Change from Baseline 48 h / Net cGMP (nM) Change from Baseline 72 h / Net cGMP (nM) Change from Baseline 96 h / Net cGMP (nM) Change from Baseline 120 h / Net cGMP (nM) Change from Baseline 144 h / Net cGMP (nM) Change from Baseline 168 h: monkey plasma; for Net cGMP (nM) Change from Baseline 0.25 h: 0.25 h postdose; for Net cGMP (nM) Change from Baseline 0.5 h: 0.5 h postdose; for Net cGMP (nM) Change from Baseline 1 h: 1 h postdose; for Net cGMP (nM) Change from Baseline 2 h: 2 h postdose; for Net cGMP (nM) Change from Baseline 4 h: 4 h postdose; for Net cGMP (nM) Change from Baseline 8 h: 8 h postdose; for Net cGMP (nM) Change from Baseline 12 h: 12 h postdose; for Net cGMP (nM) Change from Baseline 24 h: 24 h postdose; for Net cGMP (nM) Change from Baseline 36 h: 36 h postdose; for Net cGMP (nM) Change from Baseline 48 h: 48 h postdose; for Net cGMP (nM) Change from Baseline 72 h: 72 h postdose; for Net cGMP (nM) Change from Baseline 96 h: 96 h postdose; for Net cGMP (nM) Change from Baseline 120 h: 120 h postdose; for Net cGMP (nM) Change from Baseline 144 h: 144 h postdose; for Net cGMP (nM) Change from Baseline 168 h: 168 h postdose; for net cGMP levels (result in words): monkeys, single SC dose, plasma
Experimental: In vivo monkey studies were conducted as described in detail below. Young adult-to-adult male cynomolgus monkeys were given a single dose subcutaneously (SC). Blood was collected predose and at various pre-determined timepoints throughout the study period. Aliquot of cynomolgus monkey plasma was received for cyclic cGMP (cGMP) measurement and stored at −80° C. prior to use.
Control plasma was made for determining the recovery rate of spike-in cGMP using Enzo cGMP complete ELISA kit (Enzo Life Sciences, Inc, Farmingdale, NY, cat no. ADI-901-164). Briefly, blood from male Sprague Dawley rats (Inotiv, Indianapolis, IN), about 7 months old, was collected in a BD Vacutainer EDTA tube (Becton Dickinson, Franklin Lakes, NJ, cat no. BD-367856) with volume of approximate 4 mL through retro orbital bleeding. Plasma was prepared by spinning the tube in an Eppendorf Refrigerated Centrifuge 5810R (Brinkman Instruments, Inc, Westbury, NY) at 3500 rpm (3000×g) for 10 min at 4° C. Plasma was collected as Positive Control plasma. Cyclic GMP (cGMP standard from Enzo cGMP complete ELISA kit) was added to the positive control plasma at a final concentration of additional 40 nM. Positive Control and Spiked-in Control plasma were aliquoted and stored at −80° C.
The cGMP content was measured using the Enzo cGMP complete ELISA kit following the manufacturer's directions with modifications as described below. The cGMP standards provided in the kit were diluted 1:3 ranging from 50 nM to 0.023 nM in 1× assay buffer that was diluted in water from 2× assay buffer provided in the kit. The cGMP standards ([…]) were transferred to a 96-well polypropylene plate (Thermo Scientific, cat no. 442587).
Plasma samples were thawed from −80° C. and diluted 1:20 in 1× assay buffer in the above plate with a final volume of 150 μL. Assay buffer was added (150 μL) for both a non-specific binding control (in the absence of cGMP antibody) and a maximum binding control (in the absence of competing cGMP) in duplicate wells. Positive Control and Spiked-in Control plasma were diluted 1:20 in 1× assay buffer with a final volume of 150 μL in duplicate wells of the above plate. All diluted plasma was mixed by pipetting up and down several times.
Acetylation reagent mix was prepared by adding 1-part of acetic anhydride into 2-parts of triethylamine provided in the kit and mixing well using Vortex (Scientific Industries, Inc, Bohemia, NY). All controls, standards, and plasma samples were acetylated by adding 15 μL of acetylation reagent mix into the plate, one column at a time, and shaking for 1 min on a Titer Plate Shaker (Lab-Line Instrument, Inc., Melrose Park, IL) at room temperature. The plate was shaken for an additional 1 min following the acetylation of the last column to ensure the reaction was completed.
Acetylated controls, standard and plasma samples were transferred (100 μL) to an ELISA plate (n=1). Then 50 μL of cGMP conjugate were added to each well followed by the addition of 50 μL cGMP antibody to each well except for two non-specific binding wells, in which 50 μL of 1× assay buffer were added. The plate was then sealed and shaken for 2 h at room temperature on the plate shaker. Following this incubation, the plate was washed five times using 200 μL of 1× wash buffer diluted in water from 5× wash buffer provided in the kit. Then, 200 μL of para-Nitrophenylphosphate (pNpp) were added to each well. The plate was sealed with a new plate sealer and shaken in dark for 1 h at room temperature on the plate shaker. Finally, 50 μL of stop solution were added to each well to stop the enzyme reaction. The plate was then read at 405 nm using SpectraMax Plus (Molecular Devices, San Jose, CA).
The mean absorbance at 405 nm (O.D. 405 nm) for the non-specific binding controls was subtracted from the O.D. 405 nm of all samples. The subtracted O.D. 405 nm of all samples were then normalized with the mean subtracted O.D. 405 nm of the maximum binding controls as B/B0%. […]

Molecule	Net cGMP (nM) Change from Baseline 0.083 h (dose 100 nmol/kg) [nM]	Net cGMP (nM) Change from Baseline 0.25 h (dose 100 nmol/kg) [nM]	Net cGMP (nM) Change from Baseline 0.5 h (dose 100 nmol/kg) [nM]	Net cGMP (nM) Change from Baseline 1 h (dose 100 nmol/kg) [nM]	Net cGMP (nM) Change from Baseline 2 h (dose 100 nmol/kg) [nM]	Net cGMP (nM) Change from Baseline 4 h (dose 100 nmol/kg) [nM]	Net cGMP (nM) Change from Baseline 8 h (dose 100 nmol/kg) [nM]	Net cGMP (nM) Change from Baseline 12 h (dose 100 nmol/kg) [nM]	Net cGMP (nM) Change from Baseline 24 h (dose 100 nmol/kg) [nM]	Net cGMP (nM) Change from Baseline 36 h (dose 100 nmol/kg) [nM]	Net cGMP (nM) Change from Baseline 48 h (dose 100 nmol/kg) [nM]	Net cGMP (nM) Change from Baseline 72 h (dose 100 nmol/kg) [nM]	Net cGMP (nM) Change from Baseline 96 h (dose 100 nmol/kg) [nM]	Net cGMP (nM) Change from Baseline 120 h (dose 100 nmol/kg) [nM]	Net cGMP (nM) Change from Baseline 144 h (dose 100 nmol/kg) [nM]	Net cGMP (nM) Change from Baseline 168 h (dose 100 nmol/kg) [nM]	net cGMP levels (result in words)	other results
CC[C@H](C)[C@@H]1NC(=O)[C@H](CCCNC(=N)N)NC(=O)[C@H](CC(=O)O)NC(=O)[C@H]([C@@H](C)CC)NC(=O)[C@H](CCCNC(=N)N)NC(=O)CNC(=O)CNC(=O)[C@H](Cc2ccccc2)NC(=O)[C@@H](NC(=O)[C@H](CO)NC(=O)[C@H](CO)NC(=O)[C@H](CCCNC(=N)N)NC(=O)[C@H](CCCNC(=N)N)NC(=O)[C@H](Cc2ccncc2)NC(=O)[C@H](CO)NC(=O)CNC(=O)[C@H](CCCCN)NC(=O)[C@H](CCC(=O)O)NC(=O)[C@H](CCCCN)NC(=O)[C@H](CCC(=O)O)NC(=O)[C@H](CCCCN)NC(=O)[C@H](CCC(=O)O)NC(=O)CC[C@H](NC(=O)CCCCCCCCCCCCCCCCCCC(=O)O)C(=O)O)CSSC[C@@H](C(=O)N2CCC[C@H]2C(=O)N[C@@H](CO)C(=O)N[C@@H](Cc2ccccc2)C(=O)N[C@@H](CCCNC(=N)N)C(=O)N[C@@H](Cc2c[nH]cn2)C(=O)NCC(=O)NCC(=O)N2CCC[C@H]2C(=O)N[C@@H](CO)C(=O)N[C@@H](CO)C(=O)NCC(=O)N[C@@H](C)C(=O)N2CCC[C@H]2C(=O)N2CCC[C@H]2C(=O)N2CCC[C@H]2C(=O)N[C@@H](CO)C(N)=O)NC(=O)CNC(=O)[C@H](CC(C)C)NC(=O)CNC(=O)[C@H](CO)NC(=O)[C@H](CCC(N)=O)NC(=O)[C@H](Cc2c[nH]cn2)NC(=O)CNC1=O [Example 1]	2.21	9.18	18.73	27.34	37.39	34.82	22.24	19.05	16.84	17.46	12.14	9.81	10.89	8.92	9.71	8.18	increased net cGMP levels	
{C20 diacid-γGlu}-EKEKEKG[PEG24]EK[βAla]RSSCFGGKIDRIGHYSGLGCPSFRHGSPSSGAPPPS-NH2 (linker 15-31 via CH2) [Example 6]																	increased net cGMP levels	Net cGMP (nM) Change from Baseline 0.083 h (dose 25 nmol/kg): -2.93 nM; Net cGMP (nM) Change from Baseline 0.25 h (dose 25 nmol/kg): 0.03 nM; Net cGMP (nM) Change from Baseline 0.5 h (dose 25 nmol/kg): 1.5 nM; Net cGMP (nM) Change from Baseline 1 h (dose 25 nmol/kg): 1.64 nM; Net cGMP (nM) Change from Baseline 2 h (dose 25 nmol/kg): 6.23 nM; Net cGMP (nM) Change from Baseline 4 h (dose 25 nmol/kg): 7.98 nM; Net cGMP (nM) Change from Baseline 8 h (dose 25 nmol/kg): 20.26 nM; Net cGMP (nM) Change from Baseline 12 h (dose 25 nmol/kg): 25.73 nM; Net cGMP (nM) Change from Baseline 24 h (dose 25 nmol/kg): 23.75 nM; Net cGMP (nM) Change from Baseline 36 h (dose 25 nmol/kg): 22.42 nM; Net cGMP (nM) Change from Baseline 48 h (dose 25 nmol/kg): 16.24 nM; Net cGMP (nM) Change from Baseline 72 h (dose 25 nmol/kg): 9.97 nM; Net cGMP (nM) Change from Baseline 96 h (dose 25 nmol/kg): 11.47 nM; Net cGMP (nM) Change from Baseline 120 h (dose 25 nmol/kg): 4.62 nM; Net cGMP (nM) Change from Baseline 144 h (dose 25 nmol/kg): 6.86 nM; Net cGMP (nM) Change from Baseline 168 h (dose 25 nmol/kg): 5.86 nM
{C20 diacid-γGlu}-EKEKEKG[PEG24]EK[βAla]RSSCFGKRIDRIGHQSGLGCPSFRHGGKSSGAPPPS-NH2 (linker 15-31 via CH2) [Example 3]	4.1	17.89	27.34	31.14	32.56	32.25	25.95	26.49	19.56	16.01	10.79	9.28	9.23	9.96	8.99	9.69	increased net cGMP levels	

— patent publication US20240174727A1, “LONG-ACTING NATRIURETIC PEPTIDES AND USES THEREOF” (Eli Lilly and Company, priority 2022, published 2024)
